In US20230272116A1, “ANTIBODIES WHICH BIND TO CANCER CELLS AND TARGET RADIONUCLIDES TO SAID CELLS” (Hoffmann-La Roche Inc., priority 2020, published 2023):

How the values were obtained:
[1] = Biacore set-up 1 (Example 11): biotinylated Pb-DOTAM binding to captured N-terminal fusion hemibodies, read-out with monoStreptavidin; conditions: 30 nM hemibody captured; 50 nM DOTAM, 200 nM monoStreptavidin; relative to reference CEA-DOTAM (PRIT-0213); FIG. 29, 30
Protocol: Two experimental set-ups were used. • 1. In a first experimental set-up, individual TA-split-DOTAM-VH and TA-split-DOTAM-VL antibodies were first captured on a chip using an immobilized anti-hFab, and then binding of the two enantiomers of biotinylated Pb-DOTAM was assessed.
The experiments were performed with Biacore T200 at 25° C. measuring temperature. All Biacore T200 experiments were carried out in HBS-P+(GE Healthcare, Br-1008-27) pH 7,4 running buffer. The 30 nM solution in HBS-P+ of Prodrug_A or Prodrug_B was injected over the anti hFc (GE Healthcare, BR-1008-39) CM5 Chip surface (10 μl/min, 60 sec). After high density capturing of Prodrug A or B solution the 50 nM DOTAM solution (10 μl/min, 120 sec) and then the 200 nM monoStreptavidin solution (10 μl/min, 90 sec) was injected. The dissociation was monitored for 120 sec at a flow rate of 10 μl/min. For new cycle the surface was regenerated by using of 3M MgCl2 and 60 sec regeneration time with. The relative response determination was evaluated by T200 evaluation software.

[2] = Expression analysis (protein yield) of N-terminal fusion format split antibodies (Example 10); conditions: HEK cell expression; for Yield after Prot A: after Protein A affinity step; for Final Yield: after final purification
Description: In a first set, the VH and VL domain of the humanized DOTAM binder contained an N-terminal Q for the VH domain and an N-terminal A for the VL domain. In the second set, they contained an N-terminal G and S, respectively. It was observed that in this format, the antibody containing the VH domain of the humanized DOTAM binder was not successfully expressed with an N-terminal G but was successfully expressed with an N-terminal Q. G is not a typical residue at this position in a VH domain. An antibody containing the VL domain was successfully expressed with either an N-terminal S or A residue, both of which are typical residues at this position in a VL domain.

Row | DOTAM binding (relative response) [1] | Molecule | Yield after Prot A [2] [mg/L] | Final Yield [2] [mg/L]
1 | No DOTAM interaction | P1AG1806: TA-split-DOTAM-VH hemibody having an N-terminal fusion format as shown in FIG. 25C (antibody) heavy: QVQLVQSGAEVKKPGASVKVSCKASGYTFTEFGMNWVRQAPGQGLEWMGWINTKTGEATYVEEFKGRVTFTTDTSTSTAYMELRSLRSDDTAVYYCARWDFAYYVEAMDYWGQGTTVTVSSASTKGPSVFPLAPSSKSTSGGTAALGCLVKDYFPEPVTVSWNSGALTSGVHTFPAVLQSSGLYSLSSVVTVPSSSLGTQTYICNVNHKPSNTKVDKKV[human IgG1 Fc with changes skipped] QVTLKESGPVLVKPTETLTLTCTVSGFSLSTYSMSWIRQPPGKALEWLGFIGSRGDTYYASWAKGRLTISKDTSKSQVVLTMTNMDPVDTATYYCARERDPYGGGAYPPHLWGRGTLVTVSSGGGGSGGGGSGGGGSGGSGGDKTHTCPPCPAPEAAGGPSVFLFPPKPKDTLMISRTPEVTCVVVDVSHEDPEVKFNWYVDGVEVHNAKTKPREEQYNSTYRVVSVLTVLHQDWLNGKEYKCKVSNKALGAPIEKTISKAKGQPREPQVCTLPPSRDELTKNQVSLSCAVKGFYPSDIAVEWESNGQPENNYKTTPPVLDSDGSFFLVSKLTVDKSRWQQGNVFSCSVMHEALHNHYTQKSLSLSPGK light: DIQMTQSPSSLSASVGDRVTITCKASAAVGTYVAWYQQKPGKAPKLLIYSASYRKRGVPSRFSGSGSGTDFTLTISSLQPEDFATYYCHQYYTYPLFTFGQGTKLEIKRTVAAPSVFIFPPSDEQLKSGTASVVCLLNNFYPREAKVQWKVDNALQSGNSQESVTEQDSKDSTYSLSSTLTLSKADYEKHKVYACEVTHQGLSSPVTKSFNRGEC | 88.4 | 13.9
2 | No DOTAM interaction | P1AG1807: TA-split-DOTAM-VL hemibody having an N-terminal fusion format as shown in FIG. 25C (antibody) heavy: QVQLVQSGAEVKKPGASVKVSCKASGYTFTEFGMNWVRQAPGQGLEWMGWINTKTGEATYVEEFKGRVTFTTDTSTSTAYMELRSLRSDDTAVYYCARWDFAYYVEAMDYWGQGTTVTVSSASTKGPSVFPLAPSSKSTSGGTAALGCLVKDYFPEPVTVSWNSGALTSGVHTFPAVLQSSGLYSLSSVVTVPSSSLGTQTYICNVNHKPSNTKVDKKV[human IgG1 Fc with changes skipped] AIQMTQSPSSLSASVGDRVTITCQSSHSVYSDNDLAWYQQKPGKAPKLLIYQASKLASGVPSRFSGSGSGTDFTLTISSLQPEDFATYYCLGGYDDESDTYGFGGGTKVEIKGGGGSGGGGSGGGGSGGSGGDKTHTCPPCPAPEAAGGPSVFLFPPKPKDTLMISRTPEVTCVVVDVSHEDPEVKFNWYVDGVEVHNAKTKPREEQYNSTYRVVSVLTVLHQDWLNGKEYKCKVSNKALGAPIEKTISKAKGQPREPQVCTLPPSRDELTKNQVSLSCAVKGFYPSDIAVEWESNGQPENNYKTTPPVLDSDGSFFLVSKLTVDKSRWQQGNVFSCSVMHEALHNHYTQKSLSLSPGK light: DIQMTQSPSSLSASVGDRVTITCKASAAVGTYVAWYQQKPGKAPKLLIYSASYRKRGVPSRFSGSGSGTDFTLTISSLQPEDFATYYCHQYYTYPLFTFGQGTKLEIKRTVAAPSVFIFPPSDEQLKSGTASVVCLLNNFYPREAKVQWKVDNALQSGNSQESVTEQDSKDSTYSLSSTLTLSKADYEKHKVYACEVTHQGLSSPVTKSFNRGEC | 200 | 65.6
